The values below come from patent US20030133972A1, “Targeted multivalent macromolecules” (priority 2000, published 2003).

The subject of this experiment is K1735-M2 mouse melanoma model. Description: TUNEL assay on resected tumors of the melanoma study. As to conditions: no Y90; tumor resected eight days post treatment. From the text:
Eight days post treatment one tumor from each treatment group was selected at random for histological staining. The tumors were resceted and frozen in isopentane at liquid nitrogen temperatures.
Marin Biologic Laboratories, Inc. in Tiburon Calif. performed TUNEL assay, Von Willebrand's Factor and H&E staining on resceted tumors.

Regarding “4-[2-(3,4,5,6-Tetrahydropyrimidin-2-ylamino)ethyloxy]-benzoyl-2-(S)amino Ethylsulfonylamino-β-alanine [Compound 10]”, the TUNEL assay result is given as “mostly healthy cells”.
